Two molecules from paper PMC7948425 can be followed below.

Amino acid sequences for entries named in this document (tags omitted).
UniProt Q9UQE7: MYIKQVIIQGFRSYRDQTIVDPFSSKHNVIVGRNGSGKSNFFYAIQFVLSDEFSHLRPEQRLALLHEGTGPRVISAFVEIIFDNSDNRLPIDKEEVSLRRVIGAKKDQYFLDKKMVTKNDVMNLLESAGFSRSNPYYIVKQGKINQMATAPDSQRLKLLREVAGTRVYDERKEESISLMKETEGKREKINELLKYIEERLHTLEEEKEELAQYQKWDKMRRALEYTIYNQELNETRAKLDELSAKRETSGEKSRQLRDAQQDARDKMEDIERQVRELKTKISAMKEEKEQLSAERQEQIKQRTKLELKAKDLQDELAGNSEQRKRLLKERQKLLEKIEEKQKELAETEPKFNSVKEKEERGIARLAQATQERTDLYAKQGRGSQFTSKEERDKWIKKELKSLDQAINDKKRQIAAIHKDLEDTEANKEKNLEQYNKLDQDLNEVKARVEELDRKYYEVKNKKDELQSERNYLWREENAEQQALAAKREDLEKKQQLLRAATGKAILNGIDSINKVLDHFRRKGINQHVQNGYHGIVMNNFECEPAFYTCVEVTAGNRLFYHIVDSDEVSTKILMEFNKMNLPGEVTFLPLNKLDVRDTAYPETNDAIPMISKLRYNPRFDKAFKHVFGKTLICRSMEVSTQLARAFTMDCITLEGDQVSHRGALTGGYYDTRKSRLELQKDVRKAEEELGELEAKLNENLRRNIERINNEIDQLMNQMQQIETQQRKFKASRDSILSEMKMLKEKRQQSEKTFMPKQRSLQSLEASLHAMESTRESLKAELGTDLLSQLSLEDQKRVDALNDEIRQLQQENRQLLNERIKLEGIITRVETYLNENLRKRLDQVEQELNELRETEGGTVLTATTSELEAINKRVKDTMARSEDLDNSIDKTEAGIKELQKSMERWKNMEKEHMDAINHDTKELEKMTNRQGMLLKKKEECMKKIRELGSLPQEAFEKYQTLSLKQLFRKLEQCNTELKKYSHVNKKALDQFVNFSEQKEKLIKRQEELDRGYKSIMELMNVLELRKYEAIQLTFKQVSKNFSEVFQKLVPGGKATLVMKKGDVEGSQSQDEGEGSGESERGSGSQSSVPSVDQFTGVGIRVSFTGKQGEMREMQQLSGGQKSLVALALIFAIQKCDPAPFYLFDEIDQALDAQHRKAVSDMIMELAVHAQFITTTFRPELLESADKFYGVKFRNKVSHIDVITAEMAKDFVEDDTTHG

Results are given in words; binding and its absence hold for the method and conditions named. Binding seen in cells or lysates may run through a third protein. Some results given as binding are weak or reduced against the parent protein; the word gives no strength. Where a sequence is shown, tags or fusion partners need not be part of it.

The target in test [1] is T1, Myc-USP13 derivative comprising only the “USP” portion of the protein (human) (UniProt Q92995).
T1 sequence: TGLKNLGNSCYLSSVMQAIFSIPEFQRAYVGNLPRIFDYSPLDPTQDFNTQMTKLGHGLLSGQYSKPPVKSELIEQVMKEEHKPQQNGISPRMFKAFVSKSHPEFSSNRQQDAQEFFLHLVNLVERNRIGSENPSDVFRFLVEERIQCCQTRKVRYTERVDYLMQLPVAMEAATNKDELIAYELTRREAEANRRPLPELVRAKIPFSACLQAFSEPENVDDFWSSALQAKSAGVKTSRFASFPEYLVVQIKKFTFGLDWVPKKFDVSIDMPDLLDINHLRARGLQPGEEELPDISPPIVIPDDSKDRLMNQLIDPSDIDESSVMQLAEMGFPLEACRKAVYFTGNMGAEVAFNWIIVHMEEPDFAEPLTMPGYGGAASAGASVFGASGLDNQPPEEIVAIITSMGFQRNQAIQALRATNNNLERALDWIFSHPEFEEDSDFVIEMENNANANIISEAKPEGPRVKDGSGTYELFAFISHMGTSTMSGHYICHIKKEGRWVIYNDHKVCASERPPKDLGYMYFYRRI
The experiment in a line: co-IP; myc antibody on whole cell lysates of 293T cells transfected with Myc-USP13 constructs; Western blot with myc and SMC3 antibodies. (In general: Immunoblotting shows a protein as a band on a membrane.)

In test [2] the target is T2, Myc-USP13 ΔZnF (deletion of amino acids 210–265) (human) (UniProt Q92995).
T2 sequence: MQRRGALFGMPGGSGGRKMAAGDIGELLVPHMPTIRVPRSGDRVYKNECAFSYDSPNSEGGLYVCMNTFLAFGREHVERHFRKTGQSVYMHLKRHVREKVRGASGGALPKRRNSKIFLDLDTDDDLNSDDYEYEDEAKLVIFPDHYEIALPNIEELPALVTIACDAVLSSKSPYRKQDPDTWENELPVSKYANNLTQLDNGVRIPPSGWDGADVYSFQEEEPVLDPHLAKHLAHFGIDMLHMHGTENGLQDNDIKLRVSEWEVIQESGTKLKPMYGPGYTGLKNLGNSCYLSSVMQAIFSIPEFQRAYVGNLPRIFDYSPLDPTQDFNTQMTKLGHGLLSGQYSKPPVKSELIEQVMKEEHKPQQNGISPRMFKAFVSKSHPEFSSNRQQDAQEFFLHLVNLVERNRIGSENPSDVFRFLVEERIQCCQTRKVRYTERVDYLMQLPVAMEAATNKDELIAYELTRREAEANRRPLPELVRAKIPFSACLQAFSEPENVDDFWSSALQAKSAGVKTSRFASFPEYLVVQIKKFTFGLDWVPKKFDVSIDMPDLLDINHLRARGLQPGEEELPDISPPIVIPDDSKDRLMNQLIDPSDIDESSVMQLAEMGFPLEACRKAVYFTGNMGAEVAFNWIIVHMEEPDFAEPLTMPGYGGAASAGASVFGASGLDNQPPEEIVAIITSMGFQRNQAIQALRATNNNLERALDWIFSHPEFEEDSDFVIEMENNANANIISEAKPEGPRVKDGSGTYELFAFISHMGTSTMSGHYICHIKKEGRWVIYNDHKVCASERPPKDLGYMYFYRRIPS
The description is as above.

Test [3] has as its target T3, Myc-USP13 ΔUBA (deletion of amino acids 654–766) (human) (UniProt Q92995).
T3 sequence: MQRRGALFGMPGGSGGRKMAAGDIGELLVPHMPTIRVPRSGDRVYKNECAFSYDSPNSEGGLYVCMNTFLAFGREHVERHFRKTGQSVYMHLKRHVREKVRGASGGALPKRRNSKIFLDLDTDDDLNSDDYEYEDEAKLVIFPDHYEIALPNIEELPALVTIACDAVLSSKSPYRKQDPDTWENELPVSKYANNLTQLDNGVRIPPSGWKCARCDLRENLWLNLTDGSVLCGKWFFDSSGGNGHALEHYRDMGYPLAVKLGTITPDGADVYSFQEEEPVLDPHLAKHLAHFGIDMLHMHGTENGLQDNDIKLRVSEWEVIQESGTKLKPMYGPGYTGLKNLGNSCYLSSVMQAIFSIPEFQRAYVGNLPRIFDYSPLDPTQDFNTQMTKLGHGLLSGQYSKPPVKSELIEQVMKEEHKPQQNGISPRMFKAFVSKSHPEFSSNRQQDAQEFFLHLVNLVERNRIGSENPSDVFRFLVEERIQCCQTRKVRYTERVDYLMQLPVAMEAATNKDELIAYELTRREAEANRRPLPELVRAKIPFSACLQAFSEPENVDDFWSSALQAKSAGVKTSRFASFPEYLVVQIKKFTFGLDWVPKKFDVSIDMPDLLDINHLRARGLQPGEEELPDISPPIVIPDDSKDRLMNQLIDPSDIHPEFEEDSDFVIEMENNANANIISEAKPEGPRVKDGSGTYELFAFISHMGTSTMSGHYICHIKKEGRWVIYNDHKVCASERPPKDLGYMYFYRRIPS
The description is as above.

Test [4] concerns the target T4, Myc-USP13 (ectopically expressed human USP13 with an amino-terminal myc epitope tag) (human) (UniProt Q92995).
T4 sequence: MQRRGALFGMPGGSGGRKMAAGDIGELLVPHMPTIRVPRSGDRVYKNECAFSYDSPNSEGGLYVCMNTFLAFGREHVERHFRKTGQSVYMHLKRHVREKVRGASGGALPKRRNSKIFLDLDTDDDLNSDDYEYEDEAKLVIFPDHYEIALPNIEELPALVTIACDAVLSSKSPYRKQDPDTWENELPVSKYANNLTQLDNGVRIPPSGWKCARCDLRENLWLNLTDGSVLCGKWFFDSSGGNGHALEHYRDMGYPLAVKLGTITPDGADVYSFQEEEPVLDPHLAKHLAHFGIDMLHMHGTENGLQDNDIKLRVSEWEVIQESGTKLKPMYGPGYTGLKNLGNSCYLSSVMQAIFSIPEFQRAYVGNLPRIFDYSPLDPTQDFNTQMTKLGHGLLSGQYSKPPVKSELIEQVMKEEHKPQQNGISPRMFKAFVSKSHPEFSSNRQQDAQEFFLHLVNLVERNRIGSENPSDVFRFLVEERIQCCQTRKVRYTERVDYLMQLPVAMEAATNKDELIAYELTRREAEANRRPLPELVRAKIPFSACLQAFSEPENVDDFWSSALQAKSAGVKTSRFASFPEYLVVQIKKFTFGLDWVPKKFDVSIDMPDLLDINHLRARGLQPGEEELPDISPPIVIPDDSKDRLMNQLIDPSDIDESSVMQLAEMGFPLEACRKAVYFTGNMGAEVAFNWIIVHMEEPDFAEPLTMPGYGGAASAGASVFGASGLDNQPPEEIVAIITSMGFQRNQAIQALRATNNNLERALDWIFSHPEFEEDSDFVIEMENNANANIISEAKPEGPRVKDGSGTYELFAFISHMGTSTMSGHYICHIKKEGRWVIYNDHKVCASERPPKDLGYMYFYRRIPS
The description is as above.

Test [5] concerns the target SMC3, endogenous (human (endogenous in HCT116, 293T, HeLa, RPE-hTERT)) (UniProt Q9UQE7). The experiment in a line: co-IP; SMC3 antibody (or IgG control) on whole cell lysates (500 μg) of 293T, HCT116, HeLa and RPE-hTERT cells, TBS with 0.1% NP-40, 4 °C overnight, protein A/G agarose; Western blot with USP13 and STAG2 antibodies; also 293T cells treated 20 h with DMSO, hydroxyurea, RO-3306 or nocodazole.

Test [6] has the same target. The experiment in a line: co-IP; SMC3 antibody on soluble and chromatin fractions of 293T cells; Western blot with STAG2 and USP13 antibodies.

With “SMC3, endogenous (from UniProt Q9UQE7 1-1217)”, the binding result in test [1] is on record as “no binding”; in test [2], “binds”; in test [3], “no binding”; in test [4] it was “binds”.

B1: STAG2, endogenous (protein, UniProt Q8N3U4 1-1231)
chain: MIAAPEIPTDFNLLQESETHFSSDTDFEDIEGKNQKQGKGKTCKKGKKGPAEKGKGGNGGGKPPSGPNRMNGHHQQNGVENMMLFEVVKMGKSAMQSVVDDWIESYKHDRDIALLDLINFFIQCSGCKGVVTAEMFRHMQNSEIIRKMTEEFDEDSGDYPLTMAGPQWKKFKSSFCEFIGVLVRQCQYSIIYDEYMMDTVISLLTGLSDSQVRAFRHTSTLAAMKLMTALVNVALNLSINMDNTQRQYEAERNKMIGKRANERLELLLQKRKELQENQDEIENMMNAIFKGVFVHRYRDAIAEIRAICIEEIGIWMKMYSDAFLNDSYLKYVGWTMHDKQGEVRLKCLTALQGLYYNKELNSKLELFTSRFKDRIVSMTLDKEYDVAVQAIKLLTLVLQSSEEVLTAEDCENVYHLVYSAHRPVAVAAGEFLYKKLFSRRDPEEDGMMKRRGRQGPNANLVKTLVFFFLESELHEHAAYLVDSMWDCATELLKDWECMNSLLLEEPLSGEEALTDRQESALIEIMLCTIRQAAECHPPVGRGTGKRVLTAKEKKTQLDDRTKITELFAVALPQLLAKYSVDAEKVTNLLQLPQYFDLEIYTTGRLEKHLDALLRQIRNIVEKHTDTDVLEACSKTYHALCNEEFTIFNRVDISRSQLIDELADKFNRLLEDFLQEGEEPDEDDAYQVLSTLKRITAFHNAHDLSKWDLFACNYKLLKTGIENGDMPEQIVIHALQCTHYVILWQLAKITESSSTKEDLLRLKKQMRVFCQICQHYLTNVNTTVKEQAFTILCDILMIFSHQIMSGGRDMLEPLVYTPDSSLQSELLSFILDHVFIEQDDDNNSADGQQEDEASKIEALHKRRNLLAAFCKLIVYTVVEMNTAADIFKQYMKYYNDYGDIIKETMSKTRQIDKIQCAKTLILSLQQLFNEMIQENGYNFDRSSSTFSGIKELARRFALTFGLDQLKTREAIAMLHKDGIEFAFKEPNPQGESHPPLNLAFLDILSEFSSKLLRQDKRTVYVYLEKFMTFQMSLRREDVWLPLMSYRNSLLAGGDDDTMSVISGISSRGSTVRSKKSKPSTGKRKVVEGMQLSLTEESSSSDSMWLSREQTLHTPVMMQTPQLTSTIMREPKRLRPEDSFMSVYPMQTEHHQTPLDYNRRGTSLMEDDEEPIVEDVMMSSEGRIEDLNEGMDFDTMDIDLPPSKNRRERTELKPDFFDPASIMDESVLGVSMF
In the case of B1, the binding entry in test [5] and in test [6] was “binds” in each case.
